Measurements from PubChem BioAssay AID504832 (National Center for Advancing Translational Sciences (NCATS), 2011).
“And” between values parts separate entries of the source, which are not always exact repeats. Identical values can stand only once. Screen size: about 310,000 compounds; about 18,000 (5.8%) were called active. Inconclusive means that the source gave no clear call. Such entries were picked first, then a sample of the others. Calls follow the shape of the dose curve; as a rule, active = well fitted inhibition curve with a large enough effect; inconclusive = small, poorly fitted or top-dose-only effect, or another doubt; inactive = no such curve, though single readings can be large or run the other way. Potencies of inconclusive entries are left out as doubtful fits.

Assay: Primary qHTS for delayed death inhibitors of the malarial parasite plastid, 48 hour incubation
Settings: P. falciparum luciferase growth in erythrocytes; series mostly up to 28.7 µM
How it was run: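 Here the parasites carry a stable luciferase gene and grow inside erythrocytes in Albumax-based RPMI medium with compound for one erythrocytic cycle. Activity is scored as loss of luminescent signal.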
Potency is read from the fitted curve at half-maximal effect; tags tell the direction and shape of the fitted curve.

SMILES	Potency
CCOC(=O)C(NC(=O)c1ccccc1Cl)(Nc1ccc(C)c(C)c1)C(F)(F)F (stereo not given)	inconclusive [inhibitor, partial curve, poor fit]
CC(C)CN(CCCNC(=O)CN1N=C(c2ccc(Cl)cc2)CCC1=O)CC(C)C	inconclusive [inhibitor, single point]
Cc1ccc(-c2cc(-c3ccccc3)cc(-c3ccccc3)[n+]2-c2ccc(C(=O)O)cc2)cc1	inconclusive [inhibitor, single point]
CCn1c(/N=C/c2ccccc2NS(=O)(=O)c2ccc(C)cc2)nc2ccccc21	inactive
CCC(C)(C)c1ccc(OCC(=O)N(C)C)c(C(C)(C)CC)c1	active: 11.7 µM
N#C[C@@H]1[C@@H]2C(=O)N(c3ccc4c(c3)OCCO4)C(=O)[C@@H]2C2c3ccccc3C=CN21 (stereo not given in full)	inconclusive [inhibitor, single point]
COc1ccc(-c2csc(/C(C#N)=C(\O)CSc3nccn3C)n2)cc1OC	inconclusive [inhibitor, partial curve, poor fit]
O=C(NC(Cc1c[nH]c2ccccc12)C(=O)Nc1ccc(F)cc1)c1cccs1 (stereo not given)	inconclusive [inhibitor, partial curve, poor fit]
COc1ccccc1NS(=O)(=O)c1ccc(C(=O)NCC(c2ccco2)N(C)C)cc1 (stereo not given)	inactive
N=c1n(CC(=O)c2ccc([N+](=O)[O-])cc2)c2ccccc2n1Cc1ccccc1	active: 8.28 µM
COc1ccc(CNC(=O)c2cc(-c3cc(C)cc(C)c3O)n[nH]2)cc1	inconclusive [inhibitor, single point]
COc1ccccc1NC(=O)C1=C(C)Nc2nnnn2C1c1ccncc1 (stereo not given)	inconclusive [inhibitor, single point]
COc1ccc(S(=O)(=O)N2CCOCC2)cc1NC(=O)C1COc2ccccc2O1 (stereo not given)	inactive
CCn1c(=N)n(CC(O)c2ccccc2)c2ccccc21 (stereo not given)	inconclusive [inhibitor, single point]
Cc1cc(C)c[n+](CC(=O)c2ccc(NC(=O)c3ccccc3)cc2)c1	inconclusive [inhibitor, full curve]
O=C(Nc1cc(C(F)(F)F)ccc1-n1cncn1)c1ccc(Br)cc1	inconclusive [inhibitor, single point]
CCS(=O)(=O)N1N=C(c2cccc(NS(C)(=O)=O)c2)CC1c1ccccc1 (stereo not given)	inactive
CCCC(=O)N1CCN(c2ccc(NC(=O)c3cccs3)cc2Cl)CC1	inconclusive [inhibitor, full curve]
O=C(Cn1cccc1C(=O)c1ccccc1)NCc1ccc2c(c1)OCO2	inconclusive [inhibitor, full curve, poor fit]
Cc1c(C#N)c(SCC(N)=O)nc2c1CCCC2	inactive
CCOC(=O)c1oc2ccc(S(=O)(=O)n3nc(-c4cc(OC)c(OC)c(OC)c4)cc3N)cc2c1C	active: 13.1 µM
Cc1cccc(Nc2nc3c(S(=O)(=O)c4ccccc4)nnn3c3ccccc23)c1	inconclusive [inhibitor, partial curve]
CN(C)S(=O)(=O)c1ccc(N2CCCC2)c(C(=O)NNC(=O)c2ccc(Br)cc2)c1	inactive
O=C(OCc1nnc(-c2ccccc2)o1)c1ccc2ccccc2n1	inactive

SMILES	Potency
S=C(NCc1ccncc1)Nc1cc(Cl)cc(Cl)c1	active: 13.1 µM
O=C(COC(=O)CNC(=O)c1ccccc1)NCCc1ccccc1	inactive
COc1ccc(/C=N/NC(=O)c2ccc(NC(C)=O)cc2)cc1COc1ccc(F)cc1F	inactive
O=C(O)C1CC=CCC1C(=O)NNc1c(Cl)cc(Cl)cc1Cl (stereo not given)	inconclusive [inhibitor, partial curve]
COc1ccc(CN2CCC(Cc3ccccc3)CC2)cc1OC	inconclusive [inhibitor, single point]
CCOC(=O)/C=C1\Nc2ccccc2OC1=O	inconclusive [inhibitor, single point]
Cc1c(O)cc2n(c1=O)-c1ccccc1C2(C)C	inactive
Cc1ccc(NC(=O)C2CC(=O)N(C(C)C)C2)cc1C (stereo not given)	inactive
Clc1ncccc1-c1nc2ccccc2n1Cc1ccccc1	inconclusive [inhibitor, single point]
CC(C)C(=O)NN1c2ccccc2CCc2ccccc21	inconclusive [inhibitor, partial curve]
O=C(COC(=O)C1CCN(S(=O)(=O)c2cc([N+](=O)[O-])ccc2Cl)CC1)Nc1ncc(Cl)cc1Cl	inconclusive [inhibitor, full curve, poor fit]
Cc1onc(-c2ccccc2Cl)c1C(=O)O/N=C(\N)c1ccc([N+](=O)[O-])o1	active: 3.7 µM
CC(C)C[C@H](NC(=O)N1CCn2c1nc1ccccc12)C(=O)NCc1ccccc1	inconclusive [inhibitor, single point]
Cc1cc2c3c([nH]c2cc1S(=O)(=O)N1CCC2(CC1)OCCO2)CCCC3=O	inconclusive [inhibitor, single point]
Cc1ccccc1NC(=S)N(CCc1c(C)[nH]c2ccc(F)cc12)Cc1cccnc1	inconclusive [inhibitor, partial curve, poor fit]
COc1ccccc1NC(=O)CSc1nc2nccnc2c(=O)n1Cc1cccs1	inconclusive [inhibitor, single point]
Cc1ccc(C(CC(=O)c2ccco2)SCCO)cc1 (stereo not given)	inactive
CCc1cc(C(c2cccc(OC)c2)N2CCOCC2)c(NC(=O)c2ccccc2)s1 (stereo not given)	inconclusive [inhibitor, full curve, poor fit]
CCOc1cc(/C=C/C(=O)c2ccc(OC)c(CN3CCOCC3)c2)cc(Br)c1O	active: 13.1 µM
COc1ccccc1N1CCN(C2CCCN(C(=O)c3ccnc4ccc(C)cc34)C2)CC1 (stereo not given)	inconclusive [inhibitor, partial curve, poor fit]
Cc1ccc(C23CC4CC(CC(C(=O)OCC(=O)NC5CCS(=O)(=O)C5)(C4)C2)C3)cc1 (stereo not given)	inactive
O=C(NC(=S)N1CCCCCC1)c1cccc([N+](=O)[O-])c1	inconclusive [inhibitor, single point]
CCCCCn1c(=O)[nH]c2cc(C(=O)NCCCN3CCCCC3)ccc2c1=O	active: 9.28 µM
CC(C)NS(=O)(=O)c1ccc(NC(=O)C(C)OC(=O)CCC2CCCC2)cc1 (stereo not given)	inactive

SMILES	Potency
CCCn1nc(C(=O)OCc2nc(N)nc(Nc3ccccc3C)n2)c2ccccc2c1=O	inconclusive [inhibitor, single point]
Cc1c(NS(=O)(=O)c2ccc3c(c2)CCN3C(=O)C2CC2)c(=O)n(-c2ccccc2)n1C	inconclusive [inhibitor, partial curve]
Cc1ccc(-c2noc(CCC(=O)NCc3ccc4c(c3)OCO4)n2)cc1	inconclusive [inhibitor, full curve, poor fit]
O=C(CSc1nc2ccccc2c(=O)n1-c1ccc(F)cc1F)Nc1ccc(N2CCOCC2)cc1	inconclusive [inhibitor, partial curve]
O=C(CSc1ccc2nnc(-c3ccccc3)n2n1)NCC1CCCO1 (stereo not given)	inactive
Cc1cc(C=O)c(C)n1-c1ccc2c(c1)OCO2	inactive
O=C(NCc1ccncc1)c1ccc(Cl)c(S(=O)(=O)N2CCOCC2)c1	inconclusive [inhibitor, partial curve]
O=C(O)c1cccc(Nc2ncnc3c2cnn3-c2ccccc2)c1	inactive
O=C(CSc1nnc(-c2ccc(Br)o2)n1Cc1ccccc1)c1ccccc1F	active: 9.28 µM
CCOC(=O)N1CCC(NC(=O)C2CCN(S(=O)(=O)c3ccc4c(c3)oc(=O)n4C)CC2)CC1	inconclusive [inhibitor, full curve, poor fit]
CCC(C)(C)NC(=O)/C=C/c1ccccc1[N+](=O)[O-]	inactive
Cc1ccc(-c2nn(CC(=O)Nc3cccnc3)c(=O)c3ccccc23)cc1	inconclusive [inhibitor, single point]
CCOc1ccc(S(=O)(=O)Nc2ccc3c(c2)OCO3)cc1	inactive
Cc1ccccc1CN1CCSc2sccc2C1=O	inconclusive [inhibitor, single point]
O=C(CSc1nc2c(sc3ccccc32)c(=O)n1Cc1ccco1)NCC1CCCO1 (stereo not given)	active: 8.28 µM
CC(C)CCn1c(Sc2nc3ccccc3o2)nc2c1c(=O)[nH]c(=O)n2C	inconclusive [inhibitor, single point]
COc1ccc(CNCc2c(O)c(Cl)cc3c(C)c(C)c(=O)oc23)c(OC)c1	inconclusive [inhibitor, partial curve]
COc1ccc([N+](=O)[O-])cc1N(CC(=O)N1CCCCC1)S(C)(=O)=O	inactive
Cc1ccc(C2=NN(C(=O)c3ccccc3F)C(c3ccccc3F)C2)cc1 (stereo not given)	active: 4.15 µM
Cn1c(C(=O)N2CCCC(Nc3ccc(F)cc3)C2)cc2ccccc21 (stereo not given)	inactive
CN(C)CCCNC(=S)N1CCN(c2nc(-c3ccccc3)cs2)CC1	inconclusive [inhibitor, single point]
CC[n+]1c(-c2ccccc2)c2cc(N)ccc2c2ccc(N)cc21	active: 19 nM and active: 47.8 nM
